Structures are written as SMILES. About 200 (0.47%) of roughly 43,000 compounds were called active. Another 12% or so got no clear call; they are omitted. Calls follow the shape of the dose curve; as a rule, active = well fitted cell-killing curve with a large enough effect; inconclusive = small, poorly fitted or top-dose-only effect, or effect the other way; inactive = flat fitted curve, though single readings scatter. Some of the results follow.
% is scaled to controls: 0 for no effect and ±100 for the full control effect; potency is read from the fitted curve at half-maximal effect.

The nature of the test: Cell viability qHTS assay in S16 Pmp22-F2sN cells. Also: nearly all actives have a fitted effect of over 65% in size. The note with it: S16 Pmp22-F2sN Schwann cells (luciferase reporters placed in the Pmp22 gene) viability, CellTiter-Glo, 24 h; series mostly up to 57.5 µM; activity change, negative = cytotoxicity: at the top concentration. In short, it runs like this:
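CellTiter-Glo counter-screen, qHTS, 1536-well. Cells: S16(c9) Pmp22-F2sN, 500-1,000/well in DMEM + 10% FBS. Cpd 23 nL pin transfer, 24 h, 37C/5% CO2. Read: luminescence, CCD imager.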
For `Cc1cccc(C(=O)Nc2sc3c(c2C(=O)NC(C)C)CCCC3)c1`, the “activity change, negative = cytotoxicity” value is inactive: 18.8%. On the same count and under the same terms, with `CCOC(=O)c1cc(S(=O)(=O)NCc2cccc(Cl)c2)[nH]n1` the figure was inactive: 4.59%; with `CC(=O)c1ccc(N2CCN(C(=O)CCc3nnc4n(C)c(=O)c5sccc5n34)CC2)cc1`, inactive: 23.7%; with `CCCCn1c(SCC(=O)Nc2ccc(OCC)cc2)nc2ccsc2c1=O`, inactive: -19.2%. Same read-out and setting: with `Cc1ccc(NS(=O)(=O)c2cc3[nH]c(=O)c(=O)[nH]c3cc2C)cc1N(C)C` the figure was inactive: -2.04%; with `Cc1ccc(NC(=O)CCCn2c(=O)c3cccn3c3cccnc32)cc1C`, inactive: 23.4%; with `CCc1ccccc1NC(=O)[C@@H](c1ccccc1)N1Cc2ccccc2C1=O`, inactive: 4.88%. Same read-out and setting: then `CC(C)(C)OC(=O)N1CCC(c2c(C(=O)N3CCCCC3)cnn2-c2cccc(F)c2)CC1`, with inactive: -12.9%. In the case of `COc1cccc2cc(-c3nc(Nc4cccc(C)c4C)sc3C)c(=O)oc12`, the “activity change, negative = cytotoxicity” value was inactive: -0.417%. Turning to `Nc1nonc1C(=O)NCCNCc1ccccc1F`, the “activity change, negative = cytotoxicity” value is inactive: 7.31%. On the same count and under the same terms, with `CC(=O)C1=C(c2ccc(Cl)c(Cl)c2)N(C(C)=O)n2c(nnc2-c2ccccc2)S1` the figure was inactive: 6.69%; with `O=C(COCc1cc(-c2ccc(F)cc2)on1)Nc1cc(Cl)ccc1O`, inactive: 24.4%; with `Cc1ccccc1-n1nc(CO)c(C(=O)NCC(c2ccccc2)c2ccccc2)n1`, inactive: -3.62%.

For `COc1ccc(CCNC(=O)CCCn2c(=O)c3ccccc3n(Cc3ccccc3C#N)c2=O)cc1OC`, the “activity change, negative = cytotoxicity” value is inactive: -0.857%. Same read-out and setting: then `CCOC(=O)c1c(NC(=O)/C=C/c2ccc(C)cc2)sc(C(C)=O)c1C`, with inactive: 19%; and `COc1cc(C(CC(=O)Nc2cccc(C(C)=O)c2)N2Cc3ccccc3C2=O)cc(OC)c1OC` (configuration not stated), with inactive: -3.09%; and `CC(=O)Nc1nonc1-c1nnc(SCC(=O)Nc2cc(Cl)ccc2C)n1C`, with inactive: -12.9%. The same measure, in the same setting: then `CCOC(=O)C(CC)n1nc(C)c2c(C)n(-c3ccc(C)cc3)nc2c1=O` (configuration not stated), with inactive: -13.9%; and `CCCCN(CCCNC(=O)c1cc(Nc2ccc(OC)cc2)nc2ccccc12)Cc1ccccc1`, with inactive: 0.452%.

Turning to `COc1ccc(C(=O)c2sc3nc(-c4ccc(C)cc4)cc(C(F)(F)F)c3c2N)cc1`, the “activity change, negative = cytotoxicity” value was inactive: 4.39%.

Take `CCCCc1c(C)nc2c(-c3ccc(Cl)cc3)c(C)[nH]n2c1=O`: the Potency is active: 5.01 µM. `Cc1ccc(C)c(N2CCN(S(=O)(=O)c3ccc(-c4coc(C)n4)cc3)CC2)c1`: the “activity change, negative = cytotoxicity” value was inactive: 9.56%. The same measure, in the same setting: with `Cc1cccc(N2CCN(C(=O)Cn3ncc4c5ccccc5n(C)c4c3=O)CC2C)c1` (configuration not stated) the figure was inactive: 14.9%; with `Cc1ccc(S(=O)(=O)c2nc(S(=O)(=O)c3ccc(C)cc3)c(NCCCOC(C)C)s2)cc1`, inactive: -13.5%; with `O=S(=O)(Nc1ccc(F)c(Cl)c1)c1ccc(Br)s1`, inactive: -0.424%. As to `Cc1cccc(C(=O)NCCc2nc3ccccc3n2Cc2ccc(Cl)cc2)c1`, the “activity change, negative = cytotoxicity” value was inactive: -18.7%. In the case of `Cc1ccc(OC(C)C(=O)N2CCN(CCc3ccncc3)CC2)cc1C` (configuration not stated), the “activity change, negative = cytotoxicity” value is inactive: 1.79%.
